Source: US20250382344A1, “Soluble GLP1/GIP/NPY2 Receptor Triple Agonists” (Boehringer Ingelheim International GmH, priority 2024, published 2025)
Like-named read-outs stand apart in the source and are kept apart here. Not every detail of the peptide structures is certain; ends, links or a residue may be inferred. For some of these results: At least one structure is not confirmed: it was looked up by name or label, or the drawing left a doubt.

How the values were obtained:
[1] = target: T1, hGLP1R (Homo sapiens, UniProt P43220); assay: hGLP1R CreLuc assay in 0.5% and 100% plasma (HEK-293 CRE-luciferase reporter cells); format: cell-based; conditions: HEK-293 reporter cells
T1 construct: expressed in transfected cells; host or cells: HEK-293 CRE-luciferase reporter cells

[2] = target: T2, hGIPR (Homo sapiens, UniProt P48546); assay: hGIPR CreLuc assay in 0.5% and 100% plasma (CHO CRE-luciferase reporter cells); format: cell-based; conditions: 0.5% human plasma, read-out: hGIPR 0.5% hP
T2 construct: expressed in transfected cells; host or cells: CHO CRE-luciferase reporter cells
T2 sequence (P48546 22-466): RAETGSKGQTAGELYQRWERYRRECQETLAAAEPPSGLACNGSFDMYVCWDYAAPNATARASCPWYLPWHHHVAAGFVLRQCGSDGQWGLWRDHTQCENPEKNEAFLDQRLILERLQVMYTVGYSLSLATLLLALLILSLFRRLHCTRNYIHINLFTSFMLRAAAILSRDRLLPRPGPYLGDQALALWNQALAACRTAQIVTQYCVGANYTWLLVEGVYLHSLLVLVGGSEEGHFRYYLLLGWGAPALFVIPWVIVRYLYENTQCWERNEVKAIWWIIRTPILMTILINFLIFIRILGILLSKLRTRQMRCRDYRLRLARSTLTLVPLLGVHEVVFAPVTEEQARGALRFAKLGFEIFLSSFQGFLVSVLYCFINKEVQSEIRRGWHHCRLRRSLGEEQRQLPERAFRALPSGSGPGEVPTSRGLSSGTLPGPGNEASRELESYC

[3] = system: Normal NMRI Mice; assay: Effect on acute food intake in normal NMRI mice; format: in vivo; conditions: male NMRI mice, single subcutaneous dose 100 nmol/kg, 24 hours food intake normalized to vehicle group
Method: Male NMRI mice were obtained from Janvier (Janvier Labs, France) or from Charles River (Charles River Research Models & Services Germany GmbH) at the age of 3 weeks. The animals get a microchip (Datamars, Slim Microchip T-SL) for individual identification after delivery. They were housed with 4 mice per cage under a 12/12 dark-light cycle, light off at 3 p.m. Room temperature was controlled to 21° C.+/−1° C. and humidity 60%+/−20%. Mice had ad libitum access to regular rodent chow (KLIBA Nafag 3040 or Altromin 1324, Brogaarden, Denmark) and tap water.
Latest transfer into the HM2-System of MBRose, Denmark (real-time monitoring system of food- and water intake) of the animals 5 days before study start, to allow acclimatization to experimental conditions. As the animals were uniquely identified with the microchips, each individual animal was identified by its own microchip upon entry and exit from the food channel via antennae. Randomization of the mice for each study group (n=8; age earliest 6 weeks old) was based on food intake (middle of last three days 24 h-interval) and bodyweight directly before start of the study. A vehicle treated (50 mM phosphate buffer pH 7.4 with 3.5% mannitol) group was included in each experiment. To have the same nutrition standard for each animal the food access was locked eight hours before dark phase. […]

[4] = target: T3, hNPY2R (Homo sapiens, UniProt P49146); assay: hNPY2R CreLuc assay in 0.5% and 100% plasma (HEK-293 CRE-luciferase reporter cells); format: cell-based; conditions: 0.5% human plasma, HEK-293 reporter cells, read-out: hNPY2R 0.5% hP
T3 construct: expressed in transfected cells; host or cells: HEK-293 CRE-luciferase reporter cells
T3 sequence (P49146 1-381): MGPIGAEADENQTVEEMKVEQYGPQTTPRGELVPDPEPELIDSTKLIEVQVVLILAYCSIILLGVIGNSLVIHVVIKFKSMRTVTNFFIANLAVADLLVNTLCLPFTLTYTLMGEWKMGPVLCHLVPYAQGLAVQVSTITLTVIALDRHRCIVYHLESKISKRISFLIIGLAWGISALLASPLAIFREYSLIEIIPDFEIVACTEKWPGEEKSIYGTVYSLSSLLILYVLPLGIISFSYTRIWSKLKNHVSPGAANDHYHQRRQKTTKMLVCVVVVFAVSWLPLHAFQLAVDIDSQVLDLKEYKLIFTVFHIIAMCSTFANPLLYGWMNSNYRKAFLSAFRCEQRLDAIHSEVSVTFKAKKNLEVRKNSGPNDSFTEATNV
Text: CHO and HEK-293 recombinant cell lines express a luciferase reporter gene under control of the CAMP responsive element (CRE). As a second recombinant protein the GLP-1 and NPY2 receptors were expressed in the reporter gene HEK cells, and the GIP receptor was expressed in the reporter gene CHO cells, respectively. Stimulation of these recombinant cells with an agonist leads to an increase of intracellular CAMP levels. In the presence of CAMP, the transcription factor CRE binding protein (CREB) binds to the CRE and to the CREB binding protein (CBP), which leads to transcription of the luciferase reporter gene. Peptides upon serial-dilution in 100% DMSO were transferred into 384-well assay plates with 5 μl pre-dispensed assay buffer (1×HBSS, 20 mM HEPES, pH7.4 supplemented with 0.5% human plasma) using acoustic dispensing on a Labcyte ECHO. Cryo-preserved transgenic reporter gene cells were thawed in assay buffer. 20 μl (10.000 cells/well) were added to the plate with the peptides and incubated for 4 hours at 37° C. in a humidified incubator. Following incubation, assay plates are equilibrated to room temperature, followed by addition of 25 μl of Bright-Glo™ Luciferase reagent, incubation at room temperature for 10 minutes and analysis of luminescence (Envision Reader). […] EC50 values were calculated by non-linear regression using sigmoid concentration-response with variable slope.
The same assays were run in the presence of 100% plasma with no additional buffer constituents.

[5] = 0.5% human plasma, read-out: hGLP1R 0.5% hP

T1 sequence (P43220 24-463): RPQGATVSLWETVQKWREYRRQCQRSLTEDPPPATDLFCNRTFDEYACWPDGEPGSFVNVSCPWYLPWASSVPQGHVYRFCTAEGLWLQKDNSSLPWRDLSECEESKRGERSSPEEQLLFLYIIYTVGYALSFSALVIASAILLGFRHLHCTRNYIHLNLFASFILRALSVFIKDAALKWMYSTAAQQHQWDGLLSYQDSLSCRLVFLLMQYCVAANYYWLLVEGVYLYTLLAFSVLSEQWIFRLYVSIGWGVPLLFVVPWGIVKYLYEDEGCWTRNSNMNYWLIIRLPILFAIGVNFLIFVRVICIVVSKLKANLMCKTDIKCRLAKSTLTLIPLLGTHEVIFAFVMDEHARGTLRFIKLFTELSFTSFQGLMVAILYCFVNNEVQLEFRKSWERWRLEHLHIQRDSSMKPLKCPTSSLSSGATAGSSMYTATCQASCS

SMILES | EC50 [1, 5] | EC50 [2] | Acute Food Intake 24 hours 100 nmol/kg [% CTL] [3] | EC50 [4] | EC50 ([1]; 100% human plasma, read-out: hGLP1R 100% hP)
CC[C@H](C)[C@H](NC(=O)[C@H](CC(C)C)NC(=O)[C@H](Cc1c[nH]cn1)NC(=O)[C@H](CCCNC(=N)N)NC(=O)[C@@H](NC(=O)[C@H](Cc1ccccc1)NC(=O)[C@H](C)NC(=O)C(C)(C)NC(=O)[C@H](CCC(N)=O)NC(=O)[C@H](C)NC(=O)[C@H](CCC(N)=O)NC(=O)[C@H](CCCCN)NC(=O)[C@H](CCC(=O)O)NC(=O)[C@H](CC(C)C)NC(=O)C(C)(C)NC(=O)[C@@H](NC(=O)[C@H](CO)NC(=O)[C@H](Cc1ccc(O)cc1)NC(=O)[C@H](CC(=O)O)NC(=O)[C@H](CO)NC(=O)[C@@H](NC(=O)[C@H](Cc1ccccc1)NC(=O)[C@@H](NC(=O)CNC(=O)[C@H](CCC(=O)O)NC(=O)C(C)(C)NC(=O)[C@@H](N)Cc1ccc(O)cc1)[C@@H](C)O)[C@@H](C)O)[C@@H](C)CC)C(C)C)C(=O)N[C@@H](CC(N)=O)C(=O)N[C@@H](CCCCNC(=O)CCCCCNC(=O)CC[C@H](NC(=O)CC[C@H](NC(=O)CC[C@H](NC(=O)CC[C@H](NC(=O)CC[C@H](NC(=O)CC[C@H](NC(=O)CCCCCCCCCCCCCCCCC(=O)O)C(=O)O)C(=O)O)C(=O)O)C(=O)O)C(=O)O)C(=O)O)C(=O)NC(C)(C)C(=O)N[C@H](C(=O)N[C@@H](CCCNC(=N)N)C(=O)N[C@@H](CCC(N)=O)C(=O)N[C@@H](CCCNC(=N)N)C(=O)N[C@@H](Cc1ccc(O)cc1)C(N)=O)[C@@H](C)O [Compound 9, Y-Aib-E-G-T-F-T-S-D-Y-S-I-Aib-L-E-K-Q-A-Q-Aib-A-F-V-R-H-L-I-N-K(1,3)-Aib-T-R-Q-R-Y-NH2.C18DA-gGlu-gGlu-gGlu-gGlu-gGlu-gGlu-AHX(1,2)] | 0.5 nM | 0.1 nM | 56 % CTL | – | –
CC[C@H](C)[C@H](NC(=O)[C@H](CC(C)C)NC(=O)[C@H](Cc1c[nH]cn1)NC(=O)[C@H](CCCNC(=N)N)NC(=O)[C@@H](NC(=O)[C@H](Cc1ccccc1)NC(=O)[C@H](CCC(=O)O)NC(=O)C(C)(C)NC(=O)[C@H](CCC(N)=O)NC(=O)[C@H](C)NC(=O)[C@H](CCC(N)=O)NC(=O)[C@H](CCCCN)NC(=O)[C@H](CCC(=O)O)NC(=O)[C@H](CC(C)C)NC(=O)C(C)(C)NC(=O)[C@@H](NC(=O)[C@H](CO)NC(=O)[C@H](Cc1ccc(O)cc1)NC(=O)[C@H](CC(=O)O)NC(=O)[C@H](CO)NC(=O)[C@@H](NC(=O)[C@H](Cc1ccccc1)NC(=O)[C@@H](NC(=O)CNC(=O)[C@H](CCC(=O)O)NC(=O)C(C)(C)NC(=O)[C@@H](N)Cc1ccc(O)cc1)[C@@H](C)O)[C@@H](C)O)[C@@H](C)CC)C(C)C)C(=O)N[C@@H](CC(N)=O)C(=O)N[C@@H](CCCCNC(=O)CC[C@H](NC(=O)CC[C@H](NC(=O)CC[C@H](NC(=O)CC[C@H](NC(=O)CCCCCCCCCCCCCCCCC(=O)O)C(=O)O)C(=O)O)C(=O)O)C(=O)O)C(=O)NC(C)(C)C(=O)N[C@H](C(=O)N[C@@H](CCCNC(=N)N)C(=O)N[C@@H](CCC(N)=O)C(=O)N[C@@H](CCCNC(=N)N)C(=O)N[C@@H](Cc1ccc(O)cc1)C(N)=O)[C@@H](C)O [Compound 79, Y-Aib-E-G-T-F-T-S-D-Y-S-I-Aib-L-E-K-Q-A-Q-Aib-E-F-V-R-H-L-I-N-K(1,3)-Aib-T-R-Q-R-Y-NH2.C18DA-gGlu-gGlu-gGlu-gGlu(1,2)] | 0.2 nM | 0.3 nM | – | 57.9 nM | –
CC[C@H](C)[C@H](NC(=O)[C@H](CC(C)C)NC(=O)[C@H](Cc1c[nH]cn1)NC(=O)[C@H](CCCNC(=N)N)NC(=O)[C@@H](NC(=O)[C@H](Cc1ccccc1)NC(=O)[C@H](C)NC(=O)C(C)(C)NC(=O)[C@H](CCC(N)=O)NC(=O)[C@H](C)NC(=O)[C@H](CCC(N)=O)NC(=O)[C@H](CCC(=O)O)NC(=O)[C@H](CC(=O)O)NC(=O)[C@H](CC(C)C)NC(=O)C(C)(C)NC(=O)[C@@H](NC(=O)[C@H](CO)NC(=O)[C@H](Cc1ccc(O)cc1)NC(=O)[C@H](CC(=O)O)NC(=O)[C@H](CO)NC(=O)[C@@H](NC(=O)[C@H](Cc1ccccc1)NC(=O)[C@@H](NC(=O)CNC(=O)[C@H](CCC(=O)O)NC(=O)C(C)(C)NC(=O)[C@@H](N)Cc1ccc(O)cc1)[C@@H](C)O)[C@@H](C)O)[C@@H](C)CC)C(C)C)C(=O)N[C@@H](CC(N)=O)C(=O)N[C@@H](CCCCNC(=O)[C@@H](N)CCCCNC(=O)CC[C@H](NC(=O)CC[C@H](NC(=O)CC[C@H](NC(=O)CC[C@H](NC(=O)CC[C@H](NC(=O)CCCCCCCCCCCCCCCCC(=O)O)C(=O)O)C(=O)O)C(=O)O)C(=O)O)C(=O)O)C(=O)NC(C)(C)C(=O)N[C@H](C(=O)N[C@@H](CCCNC(=N)N)C(=O)N[C@@H](CCC(N)=O)C(=O)N[C@@H](CCCNC(=N)N)C(=O)N[C@@H](Cc1ccc(O)cc1)C(N)=O)[C@@H](C)O [Compound 108, Y-Aib-E-G-T-F-T-S-D-Y-S-I-Aib-L-D-E-Q-A-Q-Aib-A-F-V-R-H-L-I-N-K(1,3)-Aib-T-R-Q-R-Y-NH2.C18DA-gGlu-gGlu-gGlu-gGlu-gGlu-eLys(1,2)] | 0.3 nM | 0.2 nM | – | 20.3 nM | –
CC[C@H](C)[C@H](NC(=O)[C@H](CC(C)C)NC(=O)[C@H](Cc1c[nH]cn1)NC(=O)[C@H](CCCNC(=N)N)NC(=O)[C@@H](NC(=O)[C@H](Cc1ccccc1)NC(=O)[C@H](C)NC(=O)C(C)(C)NC(=O)[C@H](CCC(N)=O)NC(=O)[C@H](C)NC(=O)[C@H](CCC(N)=O)NC(=O)[C@H](CCCCN)NC(=O)[C@H](CCC(=O)O)NC(=O)[C@H](CC(C)C)NC(=O)C(C)(C)NC(=O)[C@@H](NC(=O)[C@H](CO)NC(=O)[C@H](Cc1ccc(O)cc1)NC(=O)[C@H](CC(=O)O)NC(=O)[C@H](CO)NC(=O)[C@@H](NC(=O)[C@H](Cc1ccccc1)NC(=O)[C@@H](NC(=O)CNC(=O)[C@H](CCC(=O)O)NC(=O)C(C)(C)NC(=O)[C@@H](N)Cc1ccc(O)cc1)[C@@H](C)O)[C@@H](C)O)[C@@H](C)CC)C(C)C)C(=O)N[C@@H](CC(N)=O)C(=O)N[C@@H](CCCCNC(=O)COCCOCCNC(=O)COCCOCCNC(=O)CC[C@H](NC(=O)CC[C@H](NC(=O)CC[C@H](NC(=O)CC[C@H](NC(=O)CC[C@H](NC(=O)CCCCCCCCCCCCCCCCC(=O)O)C(=O)O)C(=O)O)C(=O)O)C(=O)O)C(=O)O)C(=O)NC(C)(C)C(=O)N[C@H](C(=O)N[C@@H](CCCNC(=N)N)C(=O)N[C@@H](CCC(N)=O)C(=O)N[C@@H](CCCNC(=N)N)C(=O)N[C@@H](Cc1ccc(O)cc1)C(N)=O)[C@@H](C)O [Compound 117, Y-Aib-E-G-T-F-T-S-D-Y-S-I-Aib-L-E-K-Q-A-Q-Aib-A-F-V-R-H-L-I-N-K(1,3)-Aib-T-R-Q-R-Y-NH2.C18DA-gGlu-gGlu-gGlu-gGlu-gGlu-OEG-OEG(1,2)] | 0.4 nM | 0.2 nM | – | 8.8 nM | 2.8 nM
